For this test, the system named is L1210 leukemia ip in BDF1 mice, survival T/C. Description: NCI In Vivo Anticancer Drug Screen. Data for tumor model L1210 Leukemia (intraperitoneal) in B6D2F1 (BDF1) mice. The settings on record: endpoint: mean survival time, higher = longer survival.
Where [1] appears, read: dose: 100.0 mg/kg/injection, schedule: Q01DX001 (ip), vehicle: saline.

Inconclusive results and toxic doses are left out. For part of its entries the source gives two or more results. This is not the full list of results. An entry can have further records. Results that share an entry are repeated measurements in other runs, samples, wells, individuals or studies. Counts like (3×) stand for listed records that agree. Numbered stars: 1 amine (or outer) side, 2 acyl side, 3 side chain; on linkers, the order of the positions; unused ones are H or OH. Bridge positions count the residues as written; N and C are the ends. Square brackets hold non-standard residues; d marks the D form. Peptide text beside a SMILES is read from it. I, II: the chains in the order shown. Actinocin(1to9) = Cc1c2oc3c(C)ccc(C(=O)[*:2])c3nc-2c(C(=O)[*:1])c(N)c1=O; NMeV = CN[CH](C(=O)O)C(C)C; Sar = CNCC(=O)O

Take `COc1cc(C=Nc2cccc(F)c2)ccc1N(CCCl)CCCl`: the T/C under setting [1] is 124 % of control and 162 % of control.

Turning to `c1ccc(-c2nn3c(-c4ccccc4)nnc3o2)cc1`, the T/C (dose: 100.0 mg/kg/injection, schedule: Q01DX009 (ip), vehicle: saline with Tween-80) was 95 % of control and 194 % of control.

Regarding `OCCN1CCN(CC/C=C2\c3ccccc3Sc3ccc(Cl)cc32)CC1`, for the setting “dose: 50.0 mg/kg/injection, schedule: Q04DX003 (ip), vehicle: saline”, the T/C is 108 % of control and 150 % of control.

In the case of `CSc1ncc(Br)c(Sc2nc(N)nc3nc[nH]c23)n1`, the T/C (dose: 2.0 mg/kg/injection, schedule: Q01DX Z (ip), vehicle: other) is 119 % of control and 152 % of control.

For `CCC(C)C1NC(=O)C(NC(=O)c2c3nc4c(C(=O)NC5C(=O)NC(C(C)C)C(=O)N6CCCC6C(=O)N(C)CC(=O)N(C)C(C(C)C)C(=O)OC5C)ccc(C)c4oc-3c(C)c(=O)c2N)C(C)OC(=O)C(C(C)C)N(C)C(=O)CN(C)C(=O)C2CCCN2C1=O` (centres undefined) (I: TIP[Sar][NMeV] / II: TVP[Sar][NMeV]; ester I:1-I:C, II:1-II:C; linker I:N-II:N via Actinocin(1to9); configuration not given here), the T/C (dose: 50.0 micrograms/kg/injection, schedule: Q01DX009 (ip), vehicle: saline) is 120 % of control and 174 % of control.

As for `CN(O)C(N)=O`, for the setting “dose: 175.0 mg/kg/injection, schedule: Q01DX009 (ip), vehicle: saline”, the T/C is 118 % of control (2×) and 166 % of control.

Take `O=c1[nH][nH]c(=O)n1-c1ccccc1`: for the setting “dose: 400.0 mg/kg/injection, schedule: Q04DX002 (ip), vehicle: saline with Tween-80”, the T/C was 95 % of control and 195 % of control.

For the compound `OC1C2C=CC(C2)C1O` (centres undefined), the T/C under setting [1] was 98 % of control and 174 % of control.

Turning to `CN(C)N=Nc1cn[nH]c1C(N)=O`, the T/C (dose: 400.0 mg/kg/injection, schedule: Q04DX003 (ip), vehicle: Klucel (hydroxypropylcellulose) (HPC)) is 101 % of control and 168 % of control.

The values are drawn from PubChem BioAssay AID248 (DTP/NCI, 2004).
